# Reference: the supplement of paper PMC12230231
# System: SIVsab (simian immunodeficiency virus of sabaeus monkeys), single-cycle GFP reporter, in CRFK cells
# Test: enrichment among infected cells over input (fold); higher = weaker restriction
# Details: library: human / rhesus combinations
# Experimental: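 Pools of CRFK cells expressing variants of the TRIM5α v1 loop were challenged with the single-cycle reporter, sorted by GFP and sequenced; mean of two replicates.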
row,Sequence,enrichment
1,"MASGILLNVKEEVTCPICLELLTEPLSLHCGHSFCQACITANHKKSMLYKEGERSCPVCRISYQPENIQPNRHVANIVEKLREVKLSPEEGQKVDHCARHGEKLLLFCQEDSKVICWLCERSQEHRGHHTFLMEEVAQEYHVKLQTALEMLRQKQQEAEKLEADIREEKASWKIQIDYDKTNVSADFEQLREILDWEESNELQNLEKEEEDILKSLTKSETEMVQQTQYMRELISELEHRLQGSMMDLLQGVDGIIKRIENMTLKKPKTFHKNQRRVFRAPDLKGMLDMFRELTDARRYWVDVTLAPNNISHAVIAEDKRQVSSRNPQIMYQAPGTLFTFPTFVNFNYCTGVLGSQSITSGKHYWEVDVSKKSAWILGVCAGFQSDAMYNIEQNENYQPKYGYWVIGLQEGVKYSVFQDGSSHTPFAPFIVPLSVIICPDRVGVFVDYEACTVSFFNITNHGFLIYKFSQCSFSKPVFPYLNPRKCTVPMTLCSPSS [rhesus TRIM5α, 332-344 = QAPGTLFTFPTFV]",0.432 ± 0.51
2,"MASGILLNVKEEVTCPICLELLTEPLSLHCGHSFCQACITANHKKSMLYKEGERSCPVCRISYQPENIQPNRHVANIVEKLREVKLSPEEGQKVDHCARHGEKLLLFCQEDSKVICWLCERSQEHRGHHTFLMEEVAQEYHVKLQTALEMLRQKQQEAEKLEADIREEKASWKIQIDYDKTNVSADFEQLREILDWEESNELQNLEKEEEDILKSLTKSETEMVQQTQYMRELISELEHRLQGSMMDLLQGVDGIIKRIENMTLKKPKTFHKNQRRVFRAPDLKGMLDMFRELTDARRYWVDVTLAPNNISHAVIAEDKRQVSSRNPQIMYQAPGTRFTFPTLVNFNYCTGVLGSQSITSGKHYWEVDVSKKSAWILGVCAGFQSDAMYNIEQNENYQPKYGYWVIGLQEGVKYSVFQDGSSHTPFAPFIVPLSVIICPDRVGVFVDYEACTVSFFNITNHGFLIYKFSQCSFSKPVFPYLNPRKCTVPMTLCSPSS [rhesus TRIM5α, 332-344 = QAPGTRFTFPTLV]",2.46 ± 0.62
3,"MASGILLNVKEEVTCPICLELLTEPLSLHCGHSFCQACITANHKKSMLYKEGERSCPVCRISYQPENIQPNRHVANIVEKLREVKLSPEEGQKVDHCARHGEKLLLFCQEDSKVICWLCERSQEHRGHHTFLMEEVAQEYHVKLQTALEMLRQKQQEAEKLEADIREEKASWKIQIDYDKTNVSADFEQLREILDWEESNELQNLEKEEEDILKSLTKSETEMVQQTQYMRELISELEHRLQGSMMDLLQGVDGIIKRIENMTLKKPKTFHKNQRRVFRAPDLKGMLDMFRELTDARRYWVDVTLAPNNISHAVIAEDKRQVSSRNPQIMYGAPGTRYPSLTNFNYCTGVLGSQSITSGKHYWEVDVSKKSAWILGVCAGFQSDAMYNIEQNENYQPKYGYWVIGLQEGVKYSVFQDGSSHTPFAPFIVPLSVIICPDRVGVFVDYEACTVSFFNITNHGFLIYKFSQCSFSKPVFPYLNPRKCTVPMTLCSPSS [rhesus TRIM5α, 332-344 = GAPGTRYPSLT]",1.11 ± 1.1
4,"MASGILLNVKEEVTCPICLELLTEPLSLHCGHSFCQACITANHKKSMLYKEGERSCPVCRISYQPENIQPNRHVANIVEKLREVKLSPEEGQKVDHCARHGEKLLLFCQEDSKVICWLCERSQEHRGHHTFLMEEVAQEYHVKLQTALEMLRQKQQEAEKLEADIREEKASWKIQIDYDKTNVSADFEQLREILDWEESNELQNLEKEEEDILKSLTKSETEMVQQTQYMRELISELEHRLQGSMMDLLQGVDGIIKRIENMTLKKPKTFHKNQRRVFRAPDLKGMLDMFRELTDARRYWVDVTLAPNNISHAVIAEDKRQVSSRNPQIMYQAPGTRFTFPTFVNFNYCTGVLGSQSITSGKHYWEVDVSKKSAWILGVCAGFQSDAMYNIEQNENYQPKYGYWVIGLQEGVKYSVFQDGSSHTPFAPFIVPLSVIICPDRVGVFVDYEACTVSFFNITNHGFLIYKFSQCSFSKPVFPYLNPRKCTVPMTLCSPSS [rhesus TRIM5α, 332-344 = QAPGTRFTFPTFV]",1.34 ± 0.88
5,"MASGILLNVKEEVTCPICLELLTEPLSLHCGHSFCQACITANHKKSMLYKEGERSCPVCRISYQPENIQPNRHVANIVEKLREVKLSPEEGQKVDHCARHGEKLLLFCQEDSKVICWLCERSQEHRGHHTFLMEEVAQEYHVKLQTALEMLRQKQQEAEKLEADIREEKASWKIQIDYDKTNVSADFEQLREILDWEESNELQNLEKEEEDILKSLTKSETEMVQQTQYMRELISELEHRLQGSMMDLLQGVDGIIKRIENMTLKKPKTFHKNQRRVFRAPDLKGMLDMFRELTDARRYWVDVTLAPNNISHAVIAEDKRQVSSRNPQIMYGAPGTLFTFQTLVNFNYCTGVLGSQSITSGKHYWEVDVSKKSAWILGVCAGFQSDAMYNIEQNENYQPKYGYWVIGLQEGVKYSVFQDGSSHTPFAPFIVPLSVIICPDRVGVFVDYEACTVSFFNITNHGFLIYKFSQCSFSKPVFPYLNPRKCTVPMTLCSPSS [rhesus TRIM5α, 332-344 = GAPGTLFTFQTLV]",0.927 ± 0.27
6,"MASGILLNVKEEVTCPICLELLTEPLSLHCGHSFCQACITANHKKSMLYKEGERSCPVCRISYQPENIQPNRHVANIVEKLREVKLSPEEGQKVDHCARHGEKLLLFCQEDSKVICWLCERSQEHRGHHTFLMEEVAQEYHVKLQTALEMLRQKQQEAEKLEADIREEKASWKIQIDYDKTNVSADFEQLREILDWEESNELQNLEKEEEDILKSLTKSETEMVQQTQYMRELISELEHRLQGSMMDLLQGVDGIIKRIENMTLKKPKTFHKNQRRVFRAPDLKGMLDMFRELTDARRYWVDVTLAPNNISHAVIAEDKRQVSSRNPQIMYGAPGTRYQSLVNFNYCTGVLGSQSITSGKHYWEVDVSKKSAWILGVCAGFQSDAMYNIEQNENYQPKYGYWVIGLQEGVKYSVFQDGSSHTPFAPFIVPLSVIICPDRVGVFVDYEACTVSFFNITNHGFLIYKFSQCSFSKPVFPYLNPRKCTVPMTLCSPSS [rhesus TRIM5α, 332-344 = GAPGTRYQSLV]",2.52 ± 3
7,"MASGILLNVKEEVTCPICLELLTEPLSLHCGHSFCQACITANHKKSMLYKEGERSCPVCRISYQPENIQPNRHVANIVEKLREVKLSPEEGQKVDHCARHGEKLLLFCQEDSKVICWLCERSQEHRGHHTFLMEEVAQEYHVKLQTALEMLRQKQQEAEKLEADIREEKASWKIQIDYDKTNVSADFEQLREILDWEESNELQNLEKEEEDILKSLTKSETEMVQQTQYMRELISELEHRLQGSMMDLLQGVDGIIKRIENMTLKKPKTFHKNQRRVFRAPDLKGMLDMFRELTDARRYWVDVTLAPNNISHAVIAEDKRQVSSRNPQIMYGAPGTLFPSFTNFNYCTGVLGSQSITSGKHYWEVDVSKKSAWILGVCAGFQSDAMYNIEQNENYQPKYGYWVIGLQEGVKYSVFQDGSSHTPFAPFIVPLSVIICPDRVGVFVDYEACTVSFFNITNHGFLIYKFSQCSFSKPVFPYLNPRKCTVPMTLCSPSS [rhesus TRIM5α, 332-344 = GAPGTLFPSFT]",2.27 ± 1.8
8,"MASGILLNVKEEVTCPICLELLTEPLSLHCGHSFCQACITANHKKSMLYKEGERSCPVCRISYQPENIQPNRHVANIVEKLREVKLSPEEGQKVDHCARHGEKLLLFCQEDSKVICWLCERSQEHRGHHTFLMEEVAQEYHVKLQTALEMLRQKQQEAEKLEADIREEKASWKIQIDYDKTNVSADFEQLREILDWEESNELQNLEKEEEDILKSLTKSETEMVQQTQYMRELISELEHRLQGSMMDLLQGVDGIIKRIENMTLKKPKTFHKNQRRVFRAPDLKGMLDMFRELTDARRYWVDVTLAPNNISHAVIAEDKRQVSSRNPQIMYQARGTRFTFPTLTNFNYCTGVLGSQSITSGKHYWEVDVSKKSAWILGVCAGFQSDAMYNIEQNENYQPKYGYWVIGLQEGVKYSVFQDGSSHTPFAPFIVPLSVIICPDRVGVFVDYEACTVSFFNITNHGFLIYKFSQCSFSKPVFPYLNPRKCTVPMTLCSPSS [rhesus TRIM5α, 332-344 = QARGTRFTFPTLT]",1.39 ± 0.021

# ± gives the standard deviation of the averaged measurements. Restriction of a single-cycle SIVsab GFP reporter by TRIM5α v1-loop variants in CRFK cells. Human variants: read share among cells still uninfected after two challenges over input, higher = gained restriction. Rhesus variants: share among infected cells over input, higher = lost restriction. Reporter dose not given per row. No active / inactive call per row; the paper calls a change when both replicates lie above its controls (mean + 2 SD of stop or wild-type variants, or the top frameshift score). Residues outside the varied loop are taken from Swiss-Prot. The paper reads the human single-substitution scores as noise; they and the rhesus combinations repeat poorly (rank correlation 0.3 to 0.4), indel scores repeat only for the top variants, rhesus substitutions well (0.9).
